Source: article PMC4336329 (PLoS ONE, 2015)
Screen size: about 310,000 compounds; about 2,200 (0.71%) showed an effect of 50% or more. The effect is printed as a negative number. This is one part of the list.

Target: human ether-à-go-go-related gene (hERG) potassium channel (human, UniProt Q12809)
Assay: primary screen, population patch clamp on CHO cells stably expressing hERG

Sequence of human ether-à-go-go-related gene (hERG) potassium channel (Q12809 whole entry, looked up): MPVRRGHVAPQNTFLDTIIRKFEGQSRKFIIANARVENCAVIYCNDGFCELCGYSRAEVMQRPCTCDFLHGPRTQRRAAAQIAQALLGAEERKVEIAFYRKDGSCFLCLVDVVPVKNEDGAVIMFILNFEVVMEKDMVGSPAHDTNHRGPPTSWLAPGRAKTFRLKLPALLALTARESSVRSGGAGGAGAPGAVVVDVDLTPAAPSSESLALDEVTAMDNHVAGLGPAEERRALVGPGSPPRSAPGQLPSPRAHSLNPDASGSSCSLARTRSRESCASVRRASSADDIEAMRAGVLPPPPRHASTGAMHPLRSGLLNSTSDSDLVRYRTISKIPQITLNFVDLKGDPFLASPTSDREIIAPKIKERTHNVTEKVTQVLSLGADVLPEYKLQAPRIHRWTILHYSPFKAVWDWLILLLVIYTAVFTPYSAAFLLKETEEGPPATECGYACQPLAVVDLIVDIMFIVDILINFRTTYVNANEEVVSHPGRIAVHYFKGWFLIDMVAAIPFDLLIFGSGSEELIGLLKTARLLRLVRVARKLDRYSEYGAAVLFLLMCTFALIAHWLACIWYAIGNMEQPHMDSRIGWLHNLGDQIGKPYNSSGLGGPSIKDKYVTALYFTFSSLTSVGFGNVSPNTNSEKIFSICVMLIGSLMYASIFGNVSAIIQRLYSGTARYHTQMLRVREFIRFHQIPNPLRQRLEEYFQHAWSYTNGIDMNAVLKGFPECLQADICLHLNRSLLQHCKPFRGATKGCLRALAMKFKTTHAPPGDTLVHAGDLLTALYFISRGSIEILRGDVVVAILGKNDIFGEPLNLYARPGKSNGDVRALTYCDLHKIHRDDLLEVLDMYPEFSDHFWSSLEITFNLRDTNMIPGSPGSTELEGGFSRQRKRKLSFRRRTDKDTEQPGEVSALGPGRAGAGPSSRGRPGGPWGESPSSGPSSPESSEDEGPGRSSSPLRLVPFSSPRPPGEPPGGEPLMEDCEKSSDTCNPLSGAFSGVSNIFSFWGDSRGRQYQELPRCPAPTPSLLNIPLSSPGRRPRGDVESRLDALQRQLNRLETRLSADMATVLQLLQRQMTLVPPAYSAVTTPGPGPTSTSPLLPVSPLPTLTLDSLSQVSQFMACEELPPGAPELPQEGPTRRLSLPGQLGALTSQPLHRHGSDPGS

SMILES	hERG current change (%, negative = inhibition) at 1uM
O=C(NOC(=O)c1cc(Br)ccc1Cl)c1cccs1	10.6%
COc1ccc(C)cc1S(=O)(=O)Nc1ccncc1	8.1%
O=C(NCC(O)c1ccc([N+](=O)[O-])cc1)C1CCCCC1 (stereo not drawn)	12.3%
CC(C)C(NC(=O)c1ccc([N+](=O)[O-])cc1Cl)C(=O)N1CCCC1 (stereo not drawn)	9.21%
Cc1cccc(N2CCN(C(=S)c3ccc(-c4ccccc4[N+](=O)[O-])o3)CC2)c1	0.626%
CC(C)C(OC(=O)c1cc2sccc2n1C)C(=O)NCC1CCCO1 (stereo not drawn)	-2.5%
O=C(O)c1ccccc1C(=O)Nc1nccs1	5.54%
CC1Cc2cc(S(=O)(=O)N3CCCC(C(=O)N4CCCCC4)C3)ccc2N1C(=O)C1CC1 (stereo not drawn)	10.1%
CC(C)(C)OC(=O)n1cc(C(=O)c2ccccc2O)cn1	16.8%
CCCC12CN3CCN(CC(C3)/C1=N\NC(=O)c1ccccc1N)C2	11%
Cn1c(CNc2cccc(Cl)c2)nnc1SCC(=O)OC1CCCCC1	8.3%
CCn1c(SCC(=O)Nc2cccc(C)c2)nc2c(c1=O)SC(C)C2 (stereo not drawn)	5.16%
Cc1oc2c(c1C(=O)NCc1ccccc1)CCCC2	10.7%
Cc1ccc(C2C3=C(CC(C)(C)CC3=O)Nc3onc(C)c32)cc1 (stereo not drawn)	7.47%
COc1ccc(C(=O)Nc2cccc3nc(C)ccc23)c(OC)c1	13%
CC(=O)Nc1ccc2c(c1)OCO2	12.8%
Cc1ccc2nc(NC(=O)[C@H](C)N3C(=O)C4CC=CCC4C3=O)sc2c1 (stereo partly drawn)	6.36%
CN(C)CCn1cnc2c1c(=O)[nH]c(=O)n2Cc1ccccc1.Cl	8.26%
COc1ccc(NC(=S)N2CCN(C/C=C/c3ccccc3)CC2)cc1OC	2.82%

SMILES	hERG current change (%, negative = inhibition) at 1uM
CCc1ccc(N2C(=O)NC(=O)/C(=C\c3cccn3CCOc3ccc(C(C)C)cc3)C2=O)cc1	14.3%
N#Cc1ccccc1NC(=O)CN1CCN(Cc2ccccc2)CC1	-18.9%
Cc1cccc(C(=O)Nc2nnc(-c3ccco3)o2)c1	14%
CS(=O)(=O)N1CCc2cc(C(=O)N3CCCC3)ccc21	10.6%
CSc1nc(C)c2c(n1)N(c1ccc(F)cc1)CC2	20.1%
Cc1cccc(Cc2nnc(CCC(=O)NCc3ccncc3C)o2)c1	12.2%
Oc1ccc(Br)cc1C1Nc2ccccc2S1 (stereo not drawn)	18.4%
Cc1cc(=O)n(CC(=O)NCCN2CCOCC2)c2c1c(C)nn2-c1ccccc1	20.4%
Cc1cc(=O)oc2c(CN3CC(C)OC(C)C3)c(O)c(Cl)cc12 (stereo not drawn)	17%
CCCOc1cccc(C2C(C(=O)c3ccco3)=C(O)C(=O)N2CCCn2ccnc2)c1 (stereo not drawn)	11.3%
COc1ccccc1/C=C1\SC(=S)N(NS(=O)(=O)c2ccccc2)C1=O	13.9%
Cc1ccc(C)c(N2CCN(C(=O)C3CCN(c4nnc(N5CCCC5=O)s4)CC3)CC2)c1	13.6%
CCn1c(CCNC(=O)c2ccc(Cl)cc2)nnc1SCC(=O)NC1CCCC1	0.748%
O=[N+]([O-])c1ccc(Cn2cc(-c3cccc(C(F)(F)F)c3)nn2)cc1	6.13%
O=C(CCCc1ccccc1)NCCS(=O)(=O)N1CCN(c2ccc(F)cc2)CC1	-11.4%
CCOC(=O)C1CCN(S(=O)(=O)c2ccc3c(ccn3C)c2)CC1	9.85%
CCOCCCn1c(SCC(=O)NCc2ccc3c(c2)OCO3)nc2ccccc2c1=O	-11.2%
CC(C)C(=O)NC(NC(=S)NC1CCS(=O)(=O)C1)C(Cl)(Cl)Cl (stereo not drawn)	14.6%
Cn1c(SCC(N)=O)nnc1C1CCN(C(=O)NC2CCCCC2)CC1	11.1%

SMILES	hERG current change (%, negative = inhibition) at 1uM
CCCCCOC(=O)Cn1c(=O)oc2ccc(C)cc21	10.1%
COc1cc(/C=C2\SC(=O)NC2=O)ccc1Oc1ccc([N+](=O)[O-])cn1	7.31%
COc1cc2c3c(c1OC)C1(C=CC(=O)C=C1)CC3N(C(=O)c1ccccc1)CC2 (stereo not drawn)	-5.13%
CCOC(=O)c1cccc(NC(=O)C2CCCN(S(=O)(=O)c3cnc[nH]3)C2)c1 (stereo not drawn)	9.37%
CCOC(=O)CNC(=O)c1nn(-c2ccc(OCC)cc2)c(=O)c2ccccc12	8.34%
O=C(Nc1ccnn1C1CCN(Cc2ccccn2)CC1)c1cccc(F)c1	6.56%
COc1ccc(N(CC(=O)N/N=C/c2cccnc2)S(=O)(=O)c2ccc(C)cc2)cc1OC	-1.14%
Cc1ccc(NC(=O)CC(=O)c2ccccc2)cc1C	10.5%
CCOC(=O)CNS(=O)(=O)CCN1C(=O)c2ccccc2C1=O	4.71%
CCn1c(N)c(C(=O)COC(=O)CCc2nc3ccccc3c(=O)[nH]2)c(=O)[nH]c1=O	10.7%
Fc1ccc(C2Nc3cccc4cccc(c34)N2)cc1	13.2%
COc1cc(COc2ccc(-c3nnco3)cc2)ccc1OC(F)F	22.9%
Cc1csc(NC(=O)CSc2nncc(=O)n2N)n1	15.7%
Cc1ccc2c(=O)c(CN3CCCCCC3)c(C)[nH]c2c1C	11.3%
Cn1c(/C(C#N)=C(\O)c2ccc(S(=O)(=O)N3CCCCC3)cc2)nc2ccccc21	11.2%
Cc1cc(C)cc(NC(=O)c2cc(C)nn2C)c1	12.1%
CC1Cc2nc(SCC(=O)Nc3ccc(F)cc3F)n(C)c(=O)c2S1 (stereo not drawn)	-0.328%
S=C(NC1CCCCC1)N1CCN(Cc2ccccc2Cl)CC1	9.5%
CCc1ccc(N2CC(C(=O)Nc3ccc(S(=O)(=O)N4CCCCC4)cc3)CC2=O)cc1 (stereo not drawn)	2.88%
